The whole screen tested about 48,000 compounds, of which about 450 (0.94%) were called active. Roughly 19% stayed inconclusive and do not appear here. Calls follow the shape of the dose curve; as a rule, active = well fitted inhibition curve with a large enough effect; inconclusive = small, poorly fitted or top-dose-only effect; inactive = no such curve, though single readings can be large or run the other way. This is one part of the list.
Assay: Primary qHTS for Identification of Small Molecule Inhibitors of Huntingtin Promoter Activity; also: nearly all actives have a fitted effect of over 50% in size
Conditions: HEK293 HTT promoter firefly luciferase reporter (activity 0% = vehicle and -100% = no light), 24 h; series mostly up to 57.5 µM; activity change, negative = inhibition: at the top concentration
How it was run: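 HEK293 cells carrying firefly luciferase reporters were seeded at 2,500 per well in Opti-MEM and cultured for 24 h. They were then treated with compounds at up to 57.5 uM final for 24 h at 37 degrees C before Dual-Glo luminescence readout.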

Activity change, negative = inhibition, inactive:
COc1ccc(OC)c(S(=O)(=O)Nc2cc3c(cc2C)n(C)c(=O)c(=O)n3C)c1 -5.48%
CCc1ccc(-c2cn3c(n2)sc2cc(C(=O)NCCc4ccc(OC)cc4OC)ccc23)cc1 -17.6%
COc1ccccc1NC(=O)Cn1c(=O)n(Cc2ccc3c(c2)OCO3)c(=O)c2oc3ccccc3c21 3.83%
Cc1ccc(NC(=O)NCc2ccc3c(c2)CCN3C(=O)c2ccccc2)c(Cl)c1 -26.3%
COc1ccc(NC(=O)c2cn(CC(C)C)c(=O)c3cc(OC)c(OC)cc23)cc1Cl -22.7%
NS(=O)(=O)c1ccc(CCNC(=O)CCCCCn2c(=O)[nH]c3ccccc3c2=O)cc1 -13.1%
Cc1ccc(NC(=O)c2nn(C)c3c2CS(=O)(=O)c2ccccc2-3)c(Cl)c1 -1.45%
Cc1nc(N2CCOCC2)c2c(C(=O)NCc3cccc(Cl)c3)c(C)oc2n1 8.78%
Oc1c(C(c2ccccc2)N2CCC3(CC2)OCCO3)sc2nc(-c3ccco3)nn12 (stereo not drawn) -8.43%
O=C(CCCCCn1c(=O)c2sccc2n(CC(=O)Nc2cccc(Cl)c2)c1=O)NCc1ccc2c(c1)OCO2 -27.8%
COc1ccc(-c2nc3c(c(SCC(=O)Nc4ccc(C(=O)O)cc4)n2)Cc2ccccc2O3)cc1 3.94%
CCOC(=O)Cc1ccc(NC(=O)Nc2cccc(OCc3cc(=O)n4cc(C)ccc4n3)c2)cc1 5.61%
CCc1cccc(NC(=O)CSc2ncc3c(n2)-c2ccc(Cl)cc2N(Cc2ccccc2)S3(=O)=O)c1 -9.45%
COc1cccc(C(=O)NC2(C(F)(F)F)C(=O)Nc3c2c(=O)[nH]c(=O)n3-c2ccc(C)cc2)c1 (stereo not drawn) -1.85%
CCc1ccc(NC(=O)C(NS(=O)(=O)c2cccs2)C(C)C)cc1 (stereo not drawn) -26.4%
CCCCN(C)CCNC(=O)c1ccc2c(=O)n(CCc3ccccc3)c(=O)[nH]c2c1 3.1%
Cn1c(=O)c2c(c3ccccc31)OC(=O)CC2c1ccc(C(F)(F)F)cc1 (stereo not drawn) -9.95%
O=C(Nc1ccc2oc(-c3cccc4c(Br)cccc34)nc2c1)c1ccc(F)cc1 -12% [at 11.5 µM]
O=C(COC(=O)c1cc(-c2cccs2)nc2ccccc12)c1ccccc1 28.3%
O=C(c1ccc2c(c1)N(Cc1ccccc1F)C(=O)c1ccccc1S2(=O)=O)N1CCOCC1 -14.1%
CCCN(CCC)CCCNC(=O)Cn1cnc2sc(C)c(S(=O)(=O)N3CCCCC3)c2c1=O -15.9%
CCCN(Cc1cccs1)C(=O)Nc1cc(Cl)c(OC)cc1OC -4.92%
COc1cccc(-n2c(SCC(=O)Nc3cc(C)ccc3C)nc3c(oc4ccccc43)c2=O)c1 -9.72%
COc1ccc(-c2cc(C(=O)Oc3ccccc3)c3cc(C)ccc3n2)cc1 43.3%
CCn1c(=O)n(-c2ccc(C)c(F)c2)c(=O)c2sc3ccccc3c21 -9.9%
CCOCCCNC(=O)c1ccc2nc(CCc3ccccc3)oc2c1 0.788%
COc1cccc(CN2CCc3nc(Nc4ccc5c(c4)OCCO5)ncc3C2)c1 -23.8%
Cc1ccc2nc(N(Cc3cccnc3)C(=O)Cc3ccccc3)sc2c1 -10%
CCOC(=O)c1ccccc1NC(=O)Cn1ncc2c([nH]c3ccccc32)c1=O -13.7%
CCc1ccccc1NC(=O)CCn1nc(C)c2c(C)n(-c3ccccc3)nc2c1=O -15.5%
CC1CCN(c2ncnc3c2cnn3-c2ccc(F)cc2)CC1 25.7%
CCc1ccc(-n2c(=O)c3c4c(sc3n(CC(=O)NCCCOC)c2=O)CCCC4)cc1 -3.15%
O=C(NCCc1cccs1)c1ccc(Cn2c(SCc3ccc(F)cc3)nc3cccnc32)cc1 11.3%
CC[C@H](C=C[C@@H](C)[C@H]1CC[C@H]2[C@@H]3CC=C4C[C@@H](O)CC[C@]4(C)[C@@H]3CC[C@]12C)C(C)C -0.1% [at 25.2 µM]
COc1cccc(NC(=O)c2sc3nc(C)c(C(=O)Nc4ccc(C)cc4C)c(-c4ccccc4Cl)c3c2N)c1 -4.14%
CC1(C)O[C@H]2CC(=O)OC[C@]23[C@H]2CC[C@@]4(C)[C@H](c5ccoc5)OC(=O)[C@H]5O[C@]54[C@]2(C)C(=O)C[C@@H]13
Cc1ccc(CCNC(=O)c2ccc(NC(=O)N3CC(C)Sc4ccccc43)cc2)cc1 (stereo not drawn) -7.35%
COC(=O)C1=C(c2ccccc2)c2ccccc2S(=O)(=O)N1CC(=O)Nc1cccc(C(C)=O)c1 -36%
NC(N)=NC(=O)Cc1c(Cl)cccc1Cl -11.3%
COc1ccccc1N1CCN(C(=O)c2cn(C)c3ccc(S(=O)(=O)N(C)C4CCCCC4)cc3c2=O)CC1 -2.66% [at 11.5 µM]
CCOc1ccc(NC(=O)c2cnn(-c3ccc(C)c(C)c3)c2C2CCN(C(=O)OC(C)(C)C)CC2)cc1 -3.92%
CC1=C(C(=O)Nc2ccccc2)C(c2ccc(C(=O)O)cc2)n2ncnc2N1 (stereo not drawn) -2.38%
Cc1ccc(NC(=O)CCCn2c(=O)c3cccn3c3ccccc32)c(C)c1 26.7%
CCOC(=O)c1cnc2c(ccc3ccccc32)c1Nc1cccc(C(F)(F)F)c1 -15.2%
Cc1ccc(C(=O)NCC(c2ccc3c(c2)OCO3)N2CCN(C)CC2)cc1C (stereo not drawn) -13.4%
CCc1noc(-c2ccc(NCc3ccccc3)c([N+](=O)[O-])c2)n1 -10.5%
N=c1c(C(=O)NCC2CCCO2)cc2c(=O)n3ccccc3nc2n1CCCO (stereo not drawn) -6.85%
COc1ccc(F)cc1S(=O)(=O)NCC(c1ccco1)S(=O)(=O)c1ccc(F)cc1 (stereo not drawn) -16.9%
Cc1cc(C(F)F)n2nc(C(=O)Nc3cccc(Cl)c3C)nc2n1 -5.52%
Cc1nn(CCCC(=O)NCCc2ccc(Cl)cc2)c(=O)c2c1sc1ccccc12 -1.24%
Cn1ncc2c(NCc3ccccc3Cl)nc(NCCO)nc21 -19.4%
COc1ccc2c(c1)c1c(c(=O)n(-c3ccccc3)c(=O)n1CC(=O)NCCC1=CCCCC1)n2C -17.9%
Cc1c(-c2ccccc2)oc2c(C(=O)OCCN3CCCCC3)cccc2c1=O -7.2%
CCOc1ccc(CNC(=O)C2CCN(S(=O)(=O)c3cn(C)cn3)CC2)cc1 7.08%
O=C(CN1C(=O)CCn2nc(-c3ccccc3)cc21)NCc1ccc(F)cc1 -14.6%
CCOC(=O)Cn1c(=O)n(C2CCCCC2)c2nc(-c3ccc(CC)cc3)nc(C(N)=O)c21 -4.86%
Cc1nc2ccccc2n2c(-c3ccccc3)c3c(=O)n(C)c(=O)n(C)c3c12 6.85%
Cc1ccccc1N(C)S(=O)(=O)c1nnc(NC(=O)c2ccccc2F)s1 -16.5%
COc1cccc(Cn2c(CNC(=O)CCc3ccccc3)nc3cccnc32)c1 -4.28%
Cc1ccc(NC(=O)C(=O)NCCc2sc(-c3ccc(Cl)cc3)nc2C)cc1C -6.44%
Cc1c(Cl)cccc1NC(=O)CCS(=O)(=O)c1ccc2c(c1)oc(=O)n2C -5.34%
COc1cccc(CNC(=O)CCn2nc(C)c3c(C)n(-c4ccccc4)nc3c2=O)c1 -8.74%
CN(c1ccccc1)S(=O)(=O)c1nnc(NC(=O)C2CCCCC2)s1 -12.9%
CCOC(=O)c1c(C)c(C(=O)NCc2ccc(OC)cc2)c(C)n1CC -5.07%
COc1ccc(NCc2cc3cc4c(cc3n(CC(=O)Nc3ccc(F)cc3)c2=O)OCCO4)cc1 -24.5%
O=C(CSc1nc2ccccc2nc1Cc1ccc(Cl)cc1)N1CCCc2ccccc21 9.51%
COC(=O)C(C)Sc1nc2c(cnn2-c2ccc(F)cc2)c(=O)[nH]1 (stereo not drawn) -7.21%
Cc1ccc2c(=O)cc(C(=O)Nc3ccc(S(=O)(=O)N(C)Cc4ccccc4)cc3)oc2c1C -10.9%
COc1cccc(C(=O)NCc2cn3ccccc3n2)c1 3.05%
CN(N=O)C(=O)N[C@@H]1[C@@H](O)[C@H](O)[C@@H](CO)O[C@@H]1O 10.7%
CCOc1ccc(OCC)c(NS(=O)(=O)c2c(C(=O)N3CCCCCC3)c(C)n(C)c2C)c1 -10.4%
O=C(NCCCO)C(=O)NCC(c1ccc2c(c1)OCO2)N1CCOCC1 (stereo not drawn) -8.6%
COc1ccc(C2c3c(oc4ccc(C)cc4c3=O)C(=O)N2CCCN2CCOCC2)cc1OC (stereo not drawn) 1.55%
COc1ccc(NC(=O)C2=CC(c3ccc4c(c3)OCO4)=NS(=O)(=O)N2C)cc1 -29.3%
COc1ccc(C)cc1NC(=O)C1COc2ccccc2C1 (stereo not drawn) -16.3%
Fc1ccc(-n2cc(-c3ccccc3)c3c(NCCc4ccccc4)ncnc32)cc1 -25%
CCc1ccc(NC(=O)Cn2c(=O)n(CCCCC(=O)NCCc3ccccc3)c(=O)c3ccccc32)cc1 -3.1%
COc1ccc(-c2noc(CC(=O)Nc3ccc(Br)cc3C)n2)cc1 -1.13%
CCOC(=O)c1c(NC(=O)COc2c(C)cc(Cl)cc2Cl)sc2c1CCCC2 -37.4%
COc1ccc(S(=O)(=O)NCC(c2ccc(N(C)C)cc2)N2CCCC2)cc1 (stereo not drawn) -5.02%
CCCCCCOC(=O)NC(=N)c1ccc(NCc2nc3cc(C(=O)N(CCC(=O)OCC)c4ccccn4)ccc3n2C)cc1 -20.2%
Cc1cc(C)c(/C=C/c2onc(C)c2S(=O)(=O)N2CCC(C(=O)N(C)Cc3ccccc3)CC2)c(C)c1 -27.5%
Cc1ccc(NC(=O)Nc2nnc(N(C)C3CCCCC3)s2)c(Cl)c1 -17.4%
Cc1ccc(-n2c(=O)c3c4c(sc3n(Cc3ccccc3C)c2=O)CCC4)cc1C -14.6%
CC(=O)NC(Cc1ccccc1)C(=O)O (stereo not drawn) 0.0872%
O=C(Nc1ccc2c(c1)OCO2)c1cc(-c2ccc(Br)cc2)on1 -4.86% [at 11.5 µM]
Cc1ccccc1C(=O)Nc1nc2nc(-c3ccccc3)cc(=O)n2[nH]1 -16.6%
Clc1cccc(-n2cc(-c3ccccc3)c3c(N4CCCCC4)ncnc32)c1 -12.6%
COc1ccc(O)cc1 7.54%
NCCc1cnc[nH]1
CCCCCCCCCCCCCCCCCCCCCCO -1.38%
Cc1ccc(NC(=O)c2oc3ccc(S(=O)(=O)N4CCCCC4)cc3c2C)cc1Cl -15.5%
CCN(Cc1ccccc1)C(=O)CCc1c(C)nc2c(c(C)nn2-c2ccc(C)c(C)c2)c1C -1.02%
